Results taken from PubChem BioAssay (NCI).
Several values for one entry are separate records, joined by “and”; a condition that tells them apart may be missing. Equal entries are not always repeated.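 Each compound was tested at five concentrations against cells in 96-well plates for 48 hours. GI50 = concentration required for 50% inhibition of growth. TGI marks complete inhibition of growth.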

tested on: NCI-H322M lung; test: NCI-60 cell line screen, 48 h

For `CN(C)c1ccc2c(SCC(=O)OCC(=O)[C@@]3(O)CC[C@H]4[C@@H]5CCC6=CC(=O)C=C[C@]6(C)[C@H]5C(=O)C[C@@]43C)c3ccc(N(C)C)cc3nc2c1`, which TGI is on record?
Its TGI is > 100 µM.

How did the TGI turn out when `O=c1c2cc(-c3ccccc3)sc2nc2sc(-c3ccccc3)nn12` was run?
The TGI was > 100 µM.

`CCCNCC(O)/C=C/[Si](C)(C)C` (centres undefined) (tested in a mixture with another compound) was tested. Which TGI did it give?
The TGI was > 100 µM.

Which TGI does the source give for `N=C(N)SC1c2ccccc2-c2cc([N+](=O)[O-])ccc21` (centres undefined) here?
The TGI was 29.2 µM.

Which results are given for `COc1ccc(OC)c(-c2cn3nc(-c4c[nH]c5ccc(Br)cc45)sc3n2)c1`?
GI50: 3.17 µM; TGI: 20 µM

How did the TGI turn out when `CCCC(=O)C(CC)/C(CCC(=O)N(Cc1ccccc1)Cc1ccccc1)=N/NC(=O)C[N+](C)(C)C` (centres undefined) was run?
The TGI was > 100 µM.

How did the TGI turn out when `O=S(O)CCCCSSCCCCS(=O)(O)=S` was run?
Its TGI is > 100 µM.

How did the GI50 turn out when `Cc1ccc2nc(NC(=O)CSC(=S)N3CCN(Cc4ccccc4)CC3)sc2c1` was run?
Its GI50 is > 100 µM.

And the TGI?
Its TGI is > 100 µM.

With `[O-]c1c(-c2ccccc2)[se]c(-c2ccccc2)[n+]1-c1ccccc1` as the molecule, how does the TGI read?
Its TGI is 16.7 µM.

For `CCC(=O)NCC1(c2c[nH]c3ccccc23)SCCS1`, which TGI is on record?
The TGI was > 100 µM.

Which TGI does the source give for `CN(C)CCNc1ccc2nnn3c4ccc(Cl)cc4c(=O)c1c23` here?
Its TGI is 16.8 µM.

`COc1ccc(C(F)(F)F)cc1NC(=O)O/N=C(/Cl)C(C)C` was tested. Which TGI did it give?
Its TGI is 34.2 µM.

Which TGI does the source give for `Nc1nc(SCCC/C=C/B(O)O)nc2c1ncn2C1OC(CO)C(O)C1O` (centres undefined) here?
The TGI was > 243 µM.

How did the TGI turn out when `NC(N)=NS(=O)(=O)c1ccc(NC(=O)c2ccc(Cl)c3c(Nc4ccc(S(=O)(=O)N=C(N)N)cc4)c4ccccc4nc23)cc1` was run?
The TGI was > 100 µM.

With `COC(=O)/C=C\C1C(C(=O)OC)C2(C(=O)OC)CCC1(C(=O)OC)N2` (centres undefined) as the molecule, how does the TGI read?
Its TGI is 30.4 µM.

With `COc1ccc(S(=O)(=O)N2CCCCC2)cc1NC(=O)c1[nH]c(C)c2c1CCCCC2=O` as the molecule, how does the GI50 read?
Its GI50 is 1.55 µM.

And the TGI?
Its TGI is > 100 µM.

For `CCN(CC)CCNc1ccc(CO)c2sc3ccccc3c(=O)c12`, which GI50 is on record?
The GI50 was 3.24 µM and 9.61 µM.

And the TGI?
Its TGI is 23.1 µM [middle of 4 runs].

How did the TGI turn out when `O=c1[nH]nc2c3n[nH]c(=O)n3c3ccccc3n12` was run?
The TGI was > 100 µM.

Which GI50 does the source give for `CCOc1ccc2c(-c3ccnc(Nc4cccc(C(F)(F)F)c4)n3)cnn2n1` here?
The GI50 was > 22 µM.

And the TGI?
Its TGI is > 25 µM.

With `c1ccc2c(c1)[Se]c1ccccc1[Se]2` as the molecule, how does the TGI read?
Its TGI is > 100 µM.

`Oc1ccc2ccccc2c1N=Nc1ccc(N=Nc2ccccc2)cc1` was tested. Which TGI did it give?
The TGI was > 100 µM.

For `COc1ccc(CCNC(=O)Cc2ccccc2CCO)cc1OC`, which TGI is on record?
The TGI was > 100 µM.

Which TGI does the source give for `O=S(=O)(O)c1cc(O)c2c(O)c(N=Nc3ccc(/C=C/c4ccc(N=Nc5c(S(=O)(=O)O)cc6cc(S(=O)(=O)O)cc(O)c6c5O)cc4S(=O)(=O)O)c(S(=O)(=O)O)c3)c(S(=O)(=O)O)cc2c1` here?
Its TGI is > 100 µM.

Which TGI does the source give for `O=C(O/N=C1/CCC/C1=C\c1ccccc1)c1ccc(Cl)cc1` here?
Its TGI is > 100 µM.

Which TGI does the source give for `c1ccc(N=C2SC(c3ccccc3)CN2C23CC4CC(CC(C4)C2)C3)cc1` (centres undefined) here?
The TGI was > 100 µM.

Which TGI does the source give for `CCOC(=O)c1c(N2CCOCC2)[nH]c(=O)c(C(c2ccc(N(C)C)cc2)c2c(O)c(C(=O)OCC)c(N3CCOCC3)[nH]c2=O)c1O` here?
Its TGI is > 100 µM.

`C1CSCCSS[C@@H]2CCCCC2SC1` (some centres undefined) was tested. Which TGI did it give?
Its TGI is > 100 µM.

Which TGI does the source give for `COc1ccc(Oc2nc3cc(C(F)(F)F)ccc3nc2C(C)C)cc1` here?
The TGI was > 100 µM.

With `c1ccc(SCCP(CCP(c2ccccc2)c2ccccc2)c2ccccc2)cc1` (centres undefined) as the molecule, how does the TGI read?
The TGI was > 100 µM.
